# Results from a collection of fitness landscapes (doi:10.1016/j.celrep.2020.107928).
# In all, about 81,000 sequences were measured (“one-hybrid fitness for binding NBS DNA”: median about -0.1, highest 2% from about 0.36 on). Some of the results follow.
# B1: Caulobacter ParB omega fusion; a variant is named by its letters at X, in order, B8GW30 (parent)
# chain: MESVVVGEPGMSEGRRGLGRGLSALLGEVDAAPAQAPGEQLGGSREAPIEILQRNPDQPRRTFREEDLEDLSNSIREKGVLQPILVRPSPDTAGEYQIVAGERAWRAAQRAGLKTVPIMVRELDDLAVLEIGIIENVQRADLNVLEEALSYKVLMEKFERTQENIAQTIGKSXSHVANXMRLLXLPDEVQSYLVSGELTAXHARAIAAAADPVALAKQIIEGGLSVRETEALARKAPNLSAGKSKGGRPPRVKDTDTQALESDLSSVLGLDVSIDHRGSTGTLTITYATLEQLDDLCNRLTRGI
# Variants of: B1
# Assay: one-hybrid fitness for binding NBS DNA (the Noc-binding site; scaled: cognate 1, non-cognate 0); higher = stronger binding
# Conditions: with NBS DNA site
# How it was run: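 The reporter was HIS3, with the binding site 19 bp from the promoter, in E. coli USO used for bacterial one-hybrid selection of Caulobacter ParB libraries with four specificity codons randomised. Growth was on M9 lacking histidine, with 0.1 mM IPTG and 5 mM 3-AT, for 48 hours at 37°C. Illumina sequencing covered plasmids before and after selection; three replicate libraries were pooled and variants with under 10 reads dropped. A fitness score is the log change in variant-to-wild-type read ratio, rescaled to the cognate and non-cognate references.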
row,Variant,one-hybrid fitness for binding NBS DNA
1,RQDN,≤ 0.2
2,MCSR,≤ 0.2
3,RHVQ,0.222
4,SAFI,≤ 0.2
5,AVHV,≤ 0.2
6,TAYG,≤ 0.2
7,WSSS,≤ 0.2
8,WLPR,≤ 0.2
9,FKGS,≤ 0.2
10,IYTG,≤ 0.2
11,HKNQ,≤ 0.2
12,INEG,≤ 0.2
13,RMKG,≤ 0.2
14,QSNW,≤ 0.2
15,HRYR,≤ 0.2
16,LTHQ,≤ 0.2
17,EPSV,≤ 0.2
18,QRDK,≤ 0.2
19,ATSR,≤ 0.2
20,TEIV,≤ 0.2
21,YLYS,≤ 0.2
22,SNAF,≤ 0.2
23,QPEV,≤ 0.2
24,GNMS,≤ 0.2
25,LKIF,≤ 0.2

row,Variant,one-hybrid fitness for binding NBS DNA
1,YANS,≤ 0.2
2,KEIG,≤ 0.2
3,TEPC,≤ 0.2
4,DLNE,≤ 0.2
5,DQGG,≤ 0.2
6,QRCM,0.397
7,ARLM,≤ 0.2
8,SEKA,≤ 0.2
9,YFDL,≤ 0.2
10,DRSE,≤ 0.2
11,DWTD,≤ 0.2
12,QNYK,≤ 0.2
13,AGVI,≤ 0.2
14,EIAG,≤ 0.2
15,HVAE,≤ 0.2
16,DIMI,≤ 0.2
17,CGPT,≤ 0.2
18,DCAG,≤ 0.2
19,PSRW,≤ 0.2
20,LGPT,≤ 0.2
21,REHF,≤ 0.2
22,QHKI,0.333
23,RVPA,≤ 0.2
24,NMDG,≤ 0.2
25,HVRY,≤ 0.2

row,Variant,one-hybrid fitness for binding NBS DNA
1,SIDA,≤ 0.2
2,SHHQ,≤ 0.2
3,PENG,≤ 0.2
4,WTFT,≤ 0.2
5,PNRY,≤ 0.2
6,IWVG,≤ 0.2
7,NHHE,≤ 0.2
8,TLMR,≤ 0.2
9,ALAQ,≤ 0.2
10,YHRI,≤ 0.2
11,MCER,≤ 0.2
12,PSHT,≤ 0.2
13,TAFR,≤ 0.2
14,QNIY,≤ 0.2
15,NKHA,≤ 0.2
16,KLVG,≤ 0.2
17,QEWR,≤ 0.2
18,WNFG,≤ 0.2
19,ENYA,≤ 0.2
20,SFTV,≤ 0.2
21,RFSN,≤ 0.2
22,AHRL,≤ 0.2
23,LAHG,≤ 0.2
24,TTCA,≤ 0.2
25,VVLY,≤ 0.2

row,Variant,one-hybrid fitness for binding NBS DNA
1,YIMG,≤ 0.2
2,IETL,≤ 0.2
3,RSCL,≤ 0.2
4,RGHN,≤ 0.2
5,HKMT,≤ 0.2
6,FLWR,≤ 0.2
7,YGTP,≤ 0.2
8,TTDL,≤ 0.2
9,HIKY,≤ 0.2
10,FVQR,≤ 0.2
11,RPEA,≤ 0.2
12,QPVI,≤ 0.2
13,RGHF,≤ 0.2
14,LNMW,≤ 0.2
15,GTDG,≤ 0.2
16,NTYG,≤ 0.2
17,CWTG,≤ 0.2
18,FWTS,≤ 0.2
19,TTAC,≤ 0.2
20,PHQC,≤ 0.2
21,TIGS,≤ 0.2
22,ADFS,≤ 0.2
23,RQEY,≤ 0.2
24,AFPW,≤ 0.2
25,QMCS,0.38

row,Variant,one-hybrid fitness for binding NBS DNA
1,NAQP,≤ 0.2
2,TGDE,≤ 0.2
3,QWWR,≤ 0.2
4,LRAN,≤ 0.2
5,TPVN,≤ 0.2
6,WPSC,≤ 0.2
7,RRTF,≤ 0.2
8,ADCY,≤ 0.2
9,RGNL,≤ 0.2
10,KTAI,≤ 0.2
11,QRWY,0.289
12,LVHL,≤ 0.2
13,YIHG,≤ 0.2
14,NRSW,≤ 0.2
15,SWSF,≤ 0.2
16,ERDS,≤ 0.2
17,SSMC,≤ 0.2
18,MNPR,≤ 0.2
19,GPQT,≤ 0.2
20,GFTL,≤ 0.2
21,TIYN,≤ 0.2
22,RYQA,≤ 0.2
23,WQKF,≤ 0.2
24,SHIL,≤ 0.2
25,SNHG,≤ 0.2

row,Variant,one-hybrid fitness for binding NBS DNA
1,RSKM,≤ 0.2
2,HPPR,≤ 0.2
3,SCYY,≤ 0.2
4,KLYG,≤ 0.2
5,YNKE,≤ 0.2
6,EFDS,≤ 0.2
7,AAQR,≤ 0.2
8,RKWH,≤ 0.2
9,KKMG,≤ 0.2
10,KQRF,≤ 0.2
11,CQAG,≤ 0.2
12,KNVS,≤ 0.2
13,LKVN,≤ 0.2
14,EFEK,≤ 0.2
15,NKAG,≤ 0.2
16,WKRR,≤ 0.2
17,APKN,≤ 0.2
18,RGNH,≤ 0.2
19,FMYT,≤ 0.2
20,TMYT,≤ 0.2
21,RGTG,≤ 0.2
22,VNAG,≤ 0.2
23,VTTQ,≤ 0.2
24,VPRC,≤ 0.2
25,GEAC,≤ 0.2

row,Variant,one-hybrid fitness for binding NBS DNA
1,RNED,≤ 0.2
2,TTAP,≤ 0.2
3,RVDL,≤ 0.2
4,GCIL,≤ 0.2
5,STIW,≤ 0.2
6,RMKF,≤ 0.2
7,SCYV,≤ 0.2
8,QQIS,0.352
9,ECRV,≤ 0.2
10,PVTN,≤ 0.2
11,AQNN,≤ 0.2
12,QQMM,≤ 0.2
13,TLRD,≤ 0.2
14,HICT,≤ 0.2
15,WHHS,≤ 0.2
16,HCKN,≤ 0.2
17,NGRR,≤ 0.2
18,NPLS,≤ 0.2
19,QSRN,0.374
20,GSRK,≤ 0.2
21,APDK,≤ 0.2
22,KEYD,≤ 0.2
23,HCAS,≤ 0.2
24,RVKI,≤ 0.2
25,ATMI,≤ 0.2

row,Variant,one-hybrid fitness for binding NBS DNA
1,MVCA,≤ 0.2
2,NTET,≤ 0.2
3,PARM,≤ 0.2
4,HRYG,≤ 0.2
5,HDDS,≤ 0.2
6,RLNM,≤ 0.2
7,VPLG,≤ 0.2
8,GQFL,≤ 0.2
9,RPTV,≤ 0.2
10,RRVM,0.206
11,YEKK,≤ 0.2
12,TWNS,≤ 0.2
13,YVMR,≤ 0.2
14,GTKM,≤ 0.2
15,ERSF,≤ 0.2
16,PRDS,≤ 0.2
17,PHQY,≤ 0.2
18,YWMS,≤ 0.2
19,KSTS,≤ 0.2
20,ASIW,≤ 0.2
